Assay results taken from PubChem BioAssay AID1458 (National Center for Advancing Translational Sciences (NCATS), 2008).
Among all 210,000 compounds or so, about 5,900 (2.8%) were called active. The shares of active, inactive and inconclusive entries below differ from those in the screen. Calls follow the shape of the dose curve; as a rule, active = well fitted activation curve with a large enough effect; inconclusive = small, poorly fitted or top-dose-only effect; inactive = no such curve, though single readings can be large or run the other way. A potency beside an inconclusive call is a rough fit, not a confirmed value.

assay: qHTS Assay for Enhancers of SMN2 Splice Variant Expression; settings: HEK293 SMN2-luciferase splicing reporter, luminescence, 30-36 h; activity change, positive = activation: at 46.1 µM (top of the series); also: nearly all actives have a fitted effect of over 55% in size; as to activity change, positive = activation: % of control where 0% means no effect
In short: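 HEK293 cells carry an SMN2 minigene-luciferase reporter in which exon 7 inclusion puts luciferase in frame. Cells were seeded at 2000 cells/well, attached for 10-12 hours, then exposed to compounds for 30-36 hours at 37C before ONE-Glo luminescence.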
Potency is read from the fitted curve at half-maximal effect; tags tell the direction and shape of the fitted curve.

Row | Compound | Potency | activity change, positive = activation
1 | CCn1c(SCC(=O)c2ccc(O)c(O)c2)nnc1-c1ccccc1 | inconclusive: 17.8 µM [activator, partial curve] | 
2 | CN(C)S(=O)(=O)c1cccc(NC(=S)NCCc2ccccn2)c1 | inconclusive: 2.24 µM [activator, full curve] | 
3 | O=C(NCCc1ccccc1)c1ccc(-n2cnnn2)cc1 | inconclusive: 12.6 µM [activator, partial curve, poor fit] | 
4 | CCCn1c(NC(=O)C2COc3ccccc3O2)nc2ccccc21 (stereo not drawn) | inconclusive: 0.141 µM [activator, full curve] | 
5 | CC(C)NC(=O)N1CCC2(CC1)CCN(C(=O)c1cc(C(F)(F)F)cc(C(F)(F)F)c1)CC2 | inactive | 
6 | COc1ccc(-c2cn3c(C)c(C(=O)Nc4cccc(C)n4)sc3n2)cc1 | inconclusive: 35.5 µM [activator, single point] | 
7 | CCCn1nnnc1NC(=O)c1cccs1 | inconclusive: 1.78 µM [activator, partial curve] | 
8 | Brc1ccc(CSc2nnc(-c3ccco3)o2)cc1 | active: 12.6 µM | 
9 | CCc1c(C)sc(NC(=O)c2cc(-c3cccc(Cl)c3)on2)c1C#N | inactive | 
10 | Oc1ccc(/C=N/Nc2ccc(C(F)(F)F)cn2)cc1 | active: 15.8 µM | 
11 | O=C(CCNS(=O)(=O)c1cccc2nonc12)NC1CCCc2ccccc21 (stereo not drawn) | inconclusive: 0.0022 µM [activator, full curve, poor fit] | 
12 | Cc1cccc(-c2noc(-c3ccc(Cl)cc3[N+](=O)[O-])n2)c1 | inconclusive: 0.0562 µM [activator, partial curve, poor fit] | 
13 | CC(C)N(C(=O)CSc1nnc(NC(=O)c2ccco2)s1)C(C)C | inactive | 
14 | CCCCOC(=O)c1ccc(NC(=O)c2ccoc2C)cc1 | inconclusive: 0.398 µM [activator, partial curve] | 
15 | Cc1ccc2nc(-c3cc(NC(=O)/C=C/c4ccccc4)ccc3Cl)oc2c1 | inactive | 
16 | CCOc1ccc(OCC(=O)Nc2ccc(S(=O)(=O)Nc3cc(C)nc(C)n3)cc2)cc1 | inconclusive: 10 µM [activator, single point] | 
17 | Cc1ccc(-c2nc(N/N=C/c3ccccc3[N+](=O)[O-])c3ccccc3n2)cc1 | inconclusive: 4.47 µM [activator, partial curve] | 
18 | COc1ccc(C(=O)Nc2cc(C)nn2-c2nc3ccccc3[nH]2)c(OC)c1 | inactive | 
19 | COc1cc(CN2CCN(c3cccc(C)c3C)CC2)cc([N+](=O)[O-])c1O | inconclusive: 6.31 µM [activator, single point] | 
20 | C/C(=N\NC(=O)c1ccc2c(c1)OCO2)c1ccco1 | active: 12.6 µM | 
21 | COc1cc(NS(=O)(=O)c2ccc(NC(=O)/C(=C/c3ccccc3Cl)NC(=O)c3ccccc3)cc2)nc(OC)n1 | inconclusive: 6.31 µM [activator, single point] | 
22 | COc1cc(/C=N/N(C)c2ccccc2)ccc1O | inconclusive: 31.6 µM [activator, single point] | 
23 | O=C1C2C3CCC(C3)C2C(=O)N1c1ccc(OS(=O)(=O)c2ccccc2)cc1 (stereo not drawn) | inactive | 
24 | COCC(=O)N1CCC2(CC1)CCN(c1ccccn1)CC2 | inconclusive: 12.6 µM [activator, partial curve, poor fit] | 

Row | Compound | Potency | activity change, positive = activation
25 | CCCCN1C(=O)C(O)(c2c[nH]c3ccccc23)c2cc(Br)ccc21 (stereo not drawn) | inactive | 
26 | CCOC(=O)CC(=O)CSc1nnc2sc3ccccc3n12 | inactive | 
27 | O=C(NCCc1ccncc1)c1ccccc1F | inconclusive: 0.224 µM [activator, full curve, poor fit] | 
28 | O=C(Nc1ccc2c(c1)OCO2)c1cc2ncc(Br)cn2n1 | inconclusive: 0.316 µM [activator, partial curve, poor fit] | 
29 | Cc1ccc(-c2nc(SCC(=O)N(C)C3CCS(=O)(=O)C3)[nH]c2-c2ccc(C)cc2)cc1 (stereo not drawn) | inconclusive: 8.91 µM [activator, partial curve] | 
30 | Cc1ccc(-c2noc(/C=C/c3ccccc3)n2)cc1 | inconclusive: 14.1 µM [activator, partial curve, poor fit] | 
31 | COc1ccc(CCNC(=O)c2c(O)nc3c(C)cccn3c2=O)cc1 | inconclusive: 11.2 µM [activator, partial curve] | 
32 | CNC(=O)C(=O)NCCCN1CCOCC1 | inactive | 
33 | CC(=O)N1[C@H](Cc2ccccc2)C=C[C@]1(C)C(=O)O | inactive | 
34 | COc1ccc(C(=O)Cc2cnn(-c3ccccc3)c2)c(O)c1 | active: 17.8 µM | 
35 | COc1ccc(C2=C/C(=C\c3cccc(OC(C)=O)c3)C(=O)O2)cc1 | inconclusive: 3.55 µM [activator, single point] | 
36 | Cc1ccccc1Nc1c(-c2ccco2)nc2c(C)cccn12 | active: 15.8 µM | 
37 | COc1ccccc1NS(=O)(=O)c1cccc(NC(=O)c2cc3ccccc3oc2=O)c1 | active: 14.1 µM | 
38 | Cc1cc(C)nc(NC(=O)C(C)C)n1 |  | inconclusive: 31.4% [activator]
39 | CCN(CC)c1ccc(CNc2ccc(Br)cn2)cc1 | inconclusive: 12.6 µM [activator, single point] | 
40 | Cc1ccc(OCCCn2c(=O)sc3ccccc32)cc1 | inactive | 
41 | C[C@@H]1C[C@](C)(C(=O)c2ccc3c(c2)OCO3)C=C1c1ccc2c(c1)OCO2 | inactive | 
42 | COc1cccc(N2CCN(c3c(C#N)c(C(F)(F)F)nn3C)CC2)c1 | inactive | 
43 | NC1=NC(=O)C(Cc2cccc(Cl)c2)S1 (stereo not drawn) | inconclusive: 0.398 µM [activator, full curve] | 
44 | O=C(N/N=C/c1cccc(Br)c1)c1ccc(Cn2cc(Br)cn2)o1 | inactive | 
45 | Cc1ccc(S(=O)(=O)C2(S(=O)(=O)c3ccc(C)cc3)CCCC2)cc1 | inconclusive: 0.631 µM [activator, full curve] | 
46 | O=C(N1CCCCC1)C12CC3CC(C1)CC(C(=O)N1CCCCC1)(C3)C2 | inconclusive: 6.31 µM [activator, single point] | 
47 | CC(=O)N1c2ccccc2C(=O)C1N1CCCCC1 (stereo not drawn) | inactive | 
48 | COc1cccc(-c2cc(C(=O)N3CCN(C(c4ccccc4)c4ccccc4)CC3)no2)c1 | inactive | 
